Source: publication PMC4336329 (PLoS ONE, 2015)
In all, about 310,000 compounds went through this assay and about 14,000 (4.5%) showed an effect of 50% or more. Effects have a minus sign here. Some of the results follow.
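Note: peak tail current of the secondary pulse compared with the same well before compound.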

What follows are molecules tested against human ether-à-go-go-related gene (hERG) potassium channel (human, UniProt Q12809) (assay: primary screen, population patch clamp on CHO cells stably expressing hERG).
Chain of human ether-à-go-go-related gene (hERG) potassium channel (Q12809 whole entry, looked up): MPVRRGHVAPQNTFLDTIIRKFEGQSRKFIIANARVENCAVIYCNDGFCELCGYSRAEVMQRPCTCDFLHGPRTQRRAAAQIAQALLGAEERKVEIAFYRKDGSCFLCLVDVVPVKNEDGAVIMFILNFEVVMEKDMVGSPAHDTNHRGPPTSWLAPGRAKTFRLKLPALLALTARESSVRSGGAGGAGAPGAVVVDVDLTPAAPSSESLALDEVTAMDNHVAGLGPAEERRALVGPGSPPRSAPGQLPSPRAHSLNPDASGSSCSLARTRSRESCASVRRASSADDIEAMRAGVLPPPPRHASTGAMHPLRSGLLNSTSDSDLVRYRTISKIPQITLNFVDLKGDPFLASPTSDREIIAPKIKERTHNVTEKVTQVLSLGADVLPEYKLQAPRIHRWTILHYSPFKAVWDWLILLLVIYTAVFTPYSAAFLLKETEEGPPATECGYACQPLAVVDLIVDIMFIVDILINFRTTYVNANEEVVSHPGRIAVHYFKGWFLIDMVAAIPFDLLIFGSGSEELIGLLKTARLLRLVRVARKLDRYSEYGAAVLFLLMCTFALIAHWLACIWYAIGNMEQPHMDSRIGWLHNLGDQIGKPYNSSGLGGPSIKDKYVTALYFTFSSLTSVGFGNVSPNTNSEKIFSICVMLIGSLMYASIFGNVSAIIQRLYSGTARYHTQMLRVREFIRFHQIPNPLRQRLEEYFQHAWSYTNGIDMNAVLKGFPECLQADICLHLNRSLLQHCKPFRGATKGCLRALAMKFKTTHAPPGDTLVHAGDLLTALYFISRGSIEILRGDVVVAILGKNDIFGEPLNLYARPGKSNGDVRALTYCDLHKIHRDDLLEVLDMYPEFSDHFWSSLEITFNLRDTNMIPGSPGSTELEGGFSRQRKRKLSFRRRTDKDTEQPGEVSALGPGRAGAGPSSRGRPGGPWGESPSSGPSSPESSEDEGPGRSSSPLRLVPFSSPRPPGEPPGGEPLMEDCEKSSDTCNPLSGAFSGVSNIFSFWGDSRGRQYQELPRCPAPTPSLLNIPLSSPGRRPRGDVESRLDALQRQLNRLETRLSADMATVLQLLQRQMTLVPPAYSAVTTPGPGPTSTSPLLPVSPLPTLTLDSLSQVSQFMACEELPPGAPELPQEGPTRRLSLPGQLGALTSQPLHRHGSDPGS
In the case of `CCCCOc1ccc(-c2ncc([N+](=O)[O-])cn2)cc1`, the “hERG current change (%, negative = inhibition) at 10uM” value is reported as 0.41%. In the case of `COC(C(=O)Nc1ccnn1C1CCN(Cc2ccc(C)s2)CC1)c1ccccc1` (centres unmarked), the “hERG current change (%, negative = inhibition) at 10uM” value is reported as -50.8%. For `CCOC(=O)C1CCN(C(=O)COC(=O)c2ccc(=O)n(Cc3ccccc3)n2)CC1`, the “hERG current change (%, negative = inhibition) at 10uM” value was -10.7%. `Cc1cc(C)c(C)c(S(=O)(=O)N2CCN(CC(=O)c3c(N)n(Cc4ccccc4)c(=O)n(C)c3=O)CC2)c1C` was tested, and the “hERG current change (%, negative = inhibition) at 10uM” value was -10.2%. In the case of `COc1ccccc1/C=C/CN1CCC(Oc2cc(C(=O)NC3CC3)ccc2OC)CC1`, the “hERG current change (%, negative = inhibition) at 10uM” value is reported as -76.5%. `O=C(O)c1cccc(NC(=O)c2ccc3c(c2)C(=O)N(Cc2ccco2)C3=O)c1` was tested, and the “hERG current change (%, negative = inhibition) at 10uM” value was 16.3%. `CCC(C)NS(=O)(=O)c1ccc(S(=O)(=O)N2CCCC3(CCCCC3)C2)cc1` (centres unmarked) was tested, and the “hERG current change (%, negative = inhibition) at 10uM” value was -5.74%. With `COc1ccccc1-c1cc(-c2ccccc2)nc(=O)[nH]1` the “hERG current change (%, negative = inhibition) at 10uM” value was 5.68%. In the case of `COc1ccc(S(=O)(=O)n2nc(OC(=O)c3ccco3)cc2N)cc1`, the “hERG current change (%, negative = inhibition) at 10uM” value is reported as -0.725%. With `Cc1ccc(OCC(=O)Nc2ccc(CN3CCOCC3)cc2)cc1C` the “hERG current change (%, negative = inhibition) at 10uM” value was -39.3%. `O=C(O)C(=O)O.c1ccc2c(c1)CCN(C1CCCCC1)C2` was tested, and the “hERG current change (%, negative = inhibition) at 10uM” value was 3.82%. For `CCOC(=O)c1c(Cc2ccccc2)c[nH]c1C`, the “hERG current change (%, negative = inhibition) at 10uM” value was 24.5%. For `CC(=O)c1cccc(CN2CCCCC2C(=O)Nc2ccc(Oc3ccccc3)nc2)c1` (centres unmarked), the “hERG current change (%, negative = inhibition) at 10uM” value was -28.7%. For `O=S(=O)(c1ccc(F)cc1)N1CCCN(c2nccc(C(F)(F)F)n2)CC1`, the “hERG current change (%, negative = inhibition) at 10uM” value was -0.763%. `COc1ccc(CNn2cnnc2)c(O)c1` was tested, and the “hERG current change (%, negative = inhibition) at 10uM” value was 15.9%. For `COc1ccc(-n2c(SCC(=O)Nc3ccc(NC(C)=O)cc3)nc3ccccc3c2=O)cc1`, the “hERG current change (%, negative = inhibition) at 10uM” value was 17.3%. For `CCCCOc1ccccc1NC(=O)c1ccco1`, the “hERG current change (%, negative = inhibition) at 10uM” value was -12.5%. For `N#Cc1ccc(-c2ccc(Cl)cc2)nc1Oc1ccc(F)cc1`, the “hERG current change (%, negative = inhibition) at 10uM” value was 5.57%. With `Cc1cccc(CSc2ccc3nnc(-c4cccs4)n3n2)c1` the “hERG current change (%, negative = inhibition) at 10uM” value was 17.9%. With `O=C(Oc1ccccc1Cl)c1ccc(-n2cncn2)nc1` the “hERG current change (%, negative = inhibition) at 10uM” value was 23.8%. For `O=C(Nc1nnc(C2=COCCO2)o1)c1ccc(S(=O)(=O)N2CCCCC2)cc1`, the “hERG current change (%, negative = inhibition) at 10uM” value was 18.7%. For `CCCCN(CC)S(=O)(=O)c1ccc(C(=O)N=c2sc3cc(NC(C)=O)ccc3n2C)cc1`, the “hERG current change (%, negative = inhibition) at 10uM” value was 9.43%. For `COc1ccc(NC(=S)NC(NC(=O)C(C)C)C(Cl)(Cl)Cl)c([N+](=O)[O-])c1` (centres unmarked), the “hERG current change (%, negative = inhibition) at 10uM” value was 3.64%. For `CC(C)n1c(SCC(=O)Nc2nc3c(s2)CCCC3)nc2c1c(=O)n(C)c(=O)n2C`, the “hERG current change (%, negative = inhibition) at 10uM” value was -59.2%. `COc1ccc(-c2noc(CN(C)Cc3ccccc3)n2)c(OC)c1OC` was tested, and the “hERG current change (%, negative = inhibition) at 10uM” value was 9.23%. For `NC(=O)c1ccc[n+](CC(=O)c2ccc(Br)cc2)c1.[Br-]`, the “hERG current change (%, negative = inhibition) at 10uM” value was 10.3%. In the case of `Cc1cc(Cl)c2oc(C(=O)N3CCN(C(=O)c4ccco4)CC3)c(C)c2c1`, the “hERG current change (%, negative = inhibition) at 10uM” value is reported as -53.9%. `CCN(CC(=O)Nc1ccc(C)c(S(=O)(=O)N(C)C)c1)Cc1ccccc1.O=C(O)C(=O)O` was tested, and the “hERG current change (%, negative = inhibition) at 10uM” value was -25.1%. `CC(=O)c1c(C)nn(C(=O)N2CCOCC2)c1C` was tested, and the “hERG current change (%, negative = inhibition) at 10uM” value was 0.531%. With `COc1ccc(CCN2CC(C(=O)NCCc3ccccc3)CC2=O)cc1OC` (centres unmarked) the “hERG current change (%, negative = inhibition) at 10uM” value was 15.5%. With `Cc1cc(OC(C)C(=O)NCc2ccncc2)c2c(C)cc(=O)oc2c1` (centres unmarked) the “hERG current change (%, negative = inhibition) at 10uM” value was -49.2%. `Cc1ccccc1N1CCN(C2CCCN(C(=O)CCN3CCCCO3)C2)CC1` (centres unmarked) was tested, and the “hERG current change (%, negative = inhibition) at 10uM” value was -18.7%. With `Cc1nc(NC(=O)CC(C)C)sc1-c1csc(Nc2ccc(Cl)cc2Cl)n1` the “hERG current change (%, negative = inhibition) at 10uM” value was 4.74%. For `Cc1ccc(CN(C)C(=O)COc2ccc(S(=O)(=O)N3CCCC3)cc2[N+](=O)[O-])c(C)c1`, the “hERG current change (%, negative = inhibition) at 10uM” value was -9%. In the case of `CCc1ccc2[nH]c(=O)c(CN(Cc3ccco3)C(=S)NCC3CCCO3)cc2c1` (centres unmarked), the “hERG current change (%, negative = inhibition) at 10uM” value is reported as -19%. With `C=CCNc1nc(NCc2ccco2)nc(OCC)n1` the “hERG current change (%, negative = inhibition) at 10uM” value was -12.7%. `CC1CCCC(NC(=O)CCCn2c(=O)[nH]c3cc(Cl)ccc3c2=O)C1C` (centres unmarked) was tested, and the “hERG current change (%, negative = inhibition) at 10uM” value was 3.76%. `Cc1cc(N(CCCl)CCCl)ccc1/C=N/N=C(\N)c1cnccn1` was tested, and the “hERG current change (%, negative = inhibition) at 10uM” value was -4.21%. With `Cc1cc(C)n2nc(SCC(=O)N(CCC#N)c3ccc(F)cc3)nc2n1` the “hERG current change (%, negative = inhibition) at 10uM” value was -19.2%. For `CC1CN(C(=O)CCS(=O)(=O)c2ccccc2)CC(C)O1` (centres unmarked), the “hERG current change (%, negative = inhibition) at 10uM” value was 27.1%. `CCNC(=O)COC(=O)CCNC(=O)c1cccc(C)c1` was tested, and the “hERG current change (%, negative = inhibition) at 10uM” value was 5.34%. `O=C(NCCN1CCCCCC1)C1CCC(CNS(=O)(=O)c2cccc3cccnc23)CC1` (centres unmarked) was tested, and the “hERG current change (%, negative = inhibition) at 10uM” value was -7.32%. With `CC(O)c1nc2ccccc2n1C(C)c1ccccc1` (centres unmarked) the “hERG current change (%, negative = inhibition) at 10uM” value was 16.8%. In the case of `COc1cc(C(C(=O)NCc2ccccc2)N(C(=O)c2snc(C(N)=O)c2N)C2CCCC2)cc(OC)c1OC` (centres unmarked), the “hERG current change (%, negative = inhibition) at 10uM” value is reported as -27.3%.
